# According to PubChem BioAssay (NCI):
#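 These data come from cells grown in 96-well plates and exposed to compound for 48 hours at five concentrations. GI50 = concentration required for 50% inhibition of growth. At the TGI there is no net growth.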
# Tested on: NCI-H322M lung
# Test: growth of human tumour cells (NCI), 48 h
SMILES,GI50 [nM],TGI [nM]
COc1ccccc1/C=C/C=N/NC1=NC2C(S1)N(C)C(=O)N2c1ccccc1 (stereo unspecified),839,> 100000
N#Cc1c(-c2ccc(Cl)cc2)nc(SCc2ccc([N+](=O)[O-])cc2)nc1N1CCNCC1,1600,2960
CN(C)CCNC(=O)c1ccc(-c2nc3ccc4[nH]ncc4c3c3c2COCC3)cc1,1330,6510
